According to the supplement of paper PMC3334620:
Over roughly 33,000 sequences, “E-score (-0.5 to 0.5)” has its median near -0.036; the highest 2% begin near 0.37. Some of the results follow.

These sequences were tested against T1, Yer064c (UniProt P40041) (assay: PBM E-score (8-mer binding enrichment) (E-score (-0.5 to 0.5)); higher = stronger / more preferred TF binding; most listed sequences are background and not binding sites). Conditions: protein concentration: 200 nM; construct: GST-full length.
T1 sequence: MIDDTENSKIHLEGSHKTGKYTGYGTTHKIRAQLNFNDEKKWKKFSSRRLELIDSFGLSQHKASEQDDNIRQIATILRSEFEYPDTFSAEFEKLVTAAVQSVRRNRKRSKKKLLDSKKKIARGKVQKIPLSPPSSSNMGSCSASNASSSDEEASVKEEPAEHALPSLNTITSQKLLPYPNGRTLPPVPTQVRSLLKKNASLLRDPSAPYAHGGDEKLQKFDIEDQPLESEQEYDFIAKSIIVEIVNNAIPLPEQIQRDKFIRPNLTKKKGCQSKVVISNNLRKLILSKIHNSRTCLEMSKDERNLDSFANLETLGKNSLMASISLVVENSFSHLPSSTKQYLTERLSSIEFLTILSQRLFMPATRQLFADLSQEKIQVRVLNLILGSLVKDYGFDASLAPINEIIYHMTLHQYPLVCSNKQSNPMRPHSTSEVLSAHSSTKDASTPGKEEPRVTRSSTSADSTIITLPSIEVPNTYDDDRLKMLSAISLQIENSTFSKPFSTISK
In short: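 Full-length yeast transcription factors or their DNA-binding domains, GST-tagged and expressed with PURExpress, were applied at about 100-200 nM to universal all-10-mer Agilent arrays. These arrays had been made double-stranded by primer extension on fresh or once-stripped slides. Detection used fluorescent anti-GST, normalisation used masliner, and E-scores for ungapped eight-base words pooled with reverse complements came from the Universal PBM Analysis Suite.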

Sequence | PBM E-score
ACACGGAG | -0.119
ACTCGGTG | 0.171
AAACTTGG | -0.254
ATAGCCTC | -0.0538
TGTCAACA | -0.18
GGGTTTCA | -0.23
GCCGGATA | -0.176
CGCGCTAC | 0.0734
GGTCCCGA | -0.339
AGCGCCTA | -0.0797
CAGCTTTA | -0.123
CGGGTGTC | -0.028
ACTAGCCA | 0.262
AAGACTCC | 0.387
AACGTCCC | -0.218
TAAGCCCA | -0.133
AAAGGAGC | -0.151
CACGCTAC | -0.185
GAAGTACA | 0.0758
CGATCGCC | -0.137
CCAGCTAC | -0.122
GAACCTCA | 0.00299
GGGTCGGA | -0.146
ACTGGTGG | 0.0963
AAGGGTCC | -0.304

Sequence | PBM E-score
CTATTACA | -0.0332
CGAGTGTC | -0.0109
GTGGACAA | -0.144
ATCGCGCC | -0.0846
GGAGTAAA | 0.118
AACAGCTT | -0.122
GGTTAGGA | 0.0936
CGGAGCGA | -0.0437
AACCATAT | 0.211
CAAGTGGC | -0.179
GCCAAGAA | -0.139
TCTCAAAA | 0.205
CGGCTCCC | -0.279
CGCGCTTC | -0.101
ATTCGGGG | -0.0864
ATAAGCTG | -0.129
CACCTGAC | 0.245
AGACTCAT | 0.467
TAGACATA | 0.259
ACTCAGAG | 0.302
ACGAACCT | -0.196
ATTCGGAA | 0.0644
CGCACAAA | 0.123
AGGGTACT | -0.144
ATCCAGCG | -0.21

Sequence | PBM E-score
CTAGTATA | 0.166
GCACCGTA | 0.0368
AACTACAA | 0.0121
AGTTCCGG | -0.181
GCCTTACC | -0.193
GAAGCCTC | -0.255
TGAGTCCA | 0.397
AATGATGT | 0.0164
GGTGCGGA | -0.0362
AGCAACGA | 0.0795
ACCCTGAA | -0.0133
ATTCATGC | 0.137
GTTCGCTA | 0.117
GAGCAGGA | -0.0527
GGGGCACA | -0.185
GGCAAGAA | -0.117
GATACGCA | 0.0642
GTTCTTTA | -0.0184
ACACAGTG | 0.0554
TAAGAACA | 0.0509
GATCAACC | -0.0918
ATTGAGGA | 0.0891
AAGGGTGG | 0.0597
AGCCACCA | 0.131
ATATATAG | 0.133

Sequence | PBM E-score
TCTAATAA | 0.115
ACGTATGC | -0.151
CTGGGATA | -0.163
AATGATGA | 0.289
TCGTTTAA | 0.249
AGAATTTA | -0.16
TCGCGACA | 0.117
AAGCATGA | 0.119
CCAGGGGA | -0.158
CTTACCGA | -0.0159
GGCGATAC | -0.0183
TCGCAAAA | 0.14
TCGCTCAA | 0.0645
ATATCATC | -0.113
CTAAACCA | 0.0559
AATGTGAA | 0.0875
ACGGATTA | 0.1
TCGTACCA | 0.0567
ACTGCGCT | -0.00241
CCAGTCTC | -0.00302
CCACCACG | -0.101
GCCAAGCC | -0.289
AACCTCAC | -0.134
ACTCTGGA | 0.159
CCTAGAAG | -0.198

Sequence | PBM E-score
CTGAATTC | -0.0448
ATGTTCCA | -0.0954
AGGCTTCA | -0.213
ACTGGAGG | -0.183
AGATAGTG | 0.0368
GCCGCGCC | -0.148
GCTACCAA | -0.00248
AAAGCCTG | -0.0222
GCGTTGCA | -0.0751
TAGGCCTA | -0.0347
GCCTCGAA | -0.196
ATAGGGAC | -0.137
AATGAAAA | 0.0679
AATGGTGG | -0.237
ACTGTCGG | 0.00864
AGACTGTA | 0.0873
ATCACGTC | 0.049
AGGTTATC | -0.22
CCGTCCAC | -0.174
TCCTGAAA | -0.134
GTGGCGCA | -0.231
CTACGATA | -0.0194
CCTATTCC | -0.165
ATAAAAGA | -0.0767
GCTCTAAA | -0.062

Sequence | PBM E-score
GCGTCGGA | -0.057
AGATCGGG | -0.188
AGGTTCGA | -0.0448
AATGATTG | 0.358
ACAAAGCC | -0.117
TAAACACA | 0.162
AGGATCCG | -0.3
ATGTCAAC | -0.0839
AGTCGGAA | 0.318
TCCAGCAA | 0.0178
GGGTGACA | -0.103
AGCAGAAT | 0.0596
CGGTTTAG | -0.1
AGGGAACT | -0.156
GCTATGGA | -0.0809
GACGGACC | -0.147
ATGAATAA | 0.119
CGCGCATC | -0.131
CTCCTTCC | -0.0954
ACGCAGAT | 0.0138
ATCTGGGA | -0.204
CAAGGGCG | -0.197
CAAGATTC | 0.163
CTGCTTGA | 6e-05
ACGCTTGG | -0.234

Sequence | PBM E-score
ATATATGC | -0.207
GAATCAGA | 0.402
AGATAGAC | 0.0882
AGCTAACT | 0.0295
ACAGTATC | -0.24
AGTCAAGC | 0.358
ACGCGCCA | -0.308
CGATGGTA | -0.104
CAAAGGAC | 0.0351
ATTTTTAA | 0.101
GCAACACC | -0.05
CCACCCAA | -0.165
GACGATGC | -0.0834
AATAACGG | -0.0446
TCGCGAGA | 0.0767
AGCTACGG | -0.0957
GCCGTTAC | -0.0578
ATAAGGAG | 0.0799
CTCCTGTC | 0.128
GGTGGCAC | -0.381
CTCCATCA | 0.089
AATGGGCA | -0.238
